# Results: the antibiotic and cytotoxicity screens of Wong et al. (2023)
# The other results are listed elsewhere or left out.
# Test system: HSkMC (human skeletal muscle cells)
# Test: cytotoxicity call (relative viability < 0.9)
# Conditions: 10 µM
row,SMILES,cytotoxicity call
1,CC(C)NC(=O)N(C)C[C@@H]1OCCCC[C@@H](C)Oc2ccc(NS(=O)(=O)c3cn(C)cn3)cc2C(=O)N([C@H](C)CO)C[C@H]1C,inactive
2,Cc1ccc(S(=O)(=O)Nc2ccc3c(c2)CC(=O)N([C@H](C)CO)C[C@H](C)[C@H](CN(C)Cc2ccc(Oc4ccccc4)cc2)O3)cc1,inactive
3,COCCN1C[C@H]2CN(Cc3cnn(C)c3)C[C@H]2C1=O,inactive
4,C[C@@H]1CN([C@H](C)CO)C(=O)c2cc(C#Cc3ccccc3)cnc2O[C@H]1CN(C)S(=O)(=O)c1ccccc1F,inactive
5,COc1ccc(NC(=O)Nc2ccc3c(c2)C(=O)N([C@@H](C)CO)C[C@@H](C)[C@H](CN(C)Cc2ccncc2)OCCCC[C@H](C)O3)cc1,inactive
6,C[C@@H]1CN([C@@H](C)CO)C(=O)c2cc(NC(=O)Nc3ccccc3)ccc2O[C@H]1CN(C)CC1CCCCC1,inactive
7,COCC(=O)Nc1ccc2c(c1)OC[C@@H](C)N(C(=O)Cc1ccccn1)C[C@@H](C)[C@@H](OC)CN(C)C2=O,inactive
8,C[C@@H]1CCN(C(=O)[C@H](CCCNC(=N)N)NS(=O)(=O)c2cccc3c2NC[C@H](C)C3)[C@@H](C(=O)O)C1,inactive
9,Cc1ccc(S(=O)(=O)Nc2cccc3c2O[C@@H](CN(C)S(=O)(=O)c2c(C)noc2C)[C@@H](C)CN([C@H](C)CO)C3=O)cc1,inactive
10,O=C(C[C@@H]1CC[C@H]2[C@@H](COC[C@H](O)CN2S(=O)(=O)c2ccc(F)cc2)O1)N[C@@H]1CCN(Cc2ccccc2)C1,inactive
11,CO[C@H]1CN(C)C(=O)c2ccc(NC(=O)NC(C)C)cc2OC[C@@H](C)N(Cc2ccc(-c3ccccn3)cc2)C[C@@H]1C,inactive
